89 compounds from PMC4336329 (PLoS ONE, 2015) can be followed below.

Out of some 310,000 compounds screened, about 2,200 (0.71%) showed an effect of 50% or more. Effects have a minus sign here. The list shows a part of the results.

The target of this experiment is human ether-à-go-go-related gene (hERG) potassium channel (human, UniProt Q12809). In words: primary screen, population patch clamp on CHO cells stably expressing hERG.
Chain of human ether-à-go-go-related gene (hERG) potassium channel (Q12809 whole entry, looked up): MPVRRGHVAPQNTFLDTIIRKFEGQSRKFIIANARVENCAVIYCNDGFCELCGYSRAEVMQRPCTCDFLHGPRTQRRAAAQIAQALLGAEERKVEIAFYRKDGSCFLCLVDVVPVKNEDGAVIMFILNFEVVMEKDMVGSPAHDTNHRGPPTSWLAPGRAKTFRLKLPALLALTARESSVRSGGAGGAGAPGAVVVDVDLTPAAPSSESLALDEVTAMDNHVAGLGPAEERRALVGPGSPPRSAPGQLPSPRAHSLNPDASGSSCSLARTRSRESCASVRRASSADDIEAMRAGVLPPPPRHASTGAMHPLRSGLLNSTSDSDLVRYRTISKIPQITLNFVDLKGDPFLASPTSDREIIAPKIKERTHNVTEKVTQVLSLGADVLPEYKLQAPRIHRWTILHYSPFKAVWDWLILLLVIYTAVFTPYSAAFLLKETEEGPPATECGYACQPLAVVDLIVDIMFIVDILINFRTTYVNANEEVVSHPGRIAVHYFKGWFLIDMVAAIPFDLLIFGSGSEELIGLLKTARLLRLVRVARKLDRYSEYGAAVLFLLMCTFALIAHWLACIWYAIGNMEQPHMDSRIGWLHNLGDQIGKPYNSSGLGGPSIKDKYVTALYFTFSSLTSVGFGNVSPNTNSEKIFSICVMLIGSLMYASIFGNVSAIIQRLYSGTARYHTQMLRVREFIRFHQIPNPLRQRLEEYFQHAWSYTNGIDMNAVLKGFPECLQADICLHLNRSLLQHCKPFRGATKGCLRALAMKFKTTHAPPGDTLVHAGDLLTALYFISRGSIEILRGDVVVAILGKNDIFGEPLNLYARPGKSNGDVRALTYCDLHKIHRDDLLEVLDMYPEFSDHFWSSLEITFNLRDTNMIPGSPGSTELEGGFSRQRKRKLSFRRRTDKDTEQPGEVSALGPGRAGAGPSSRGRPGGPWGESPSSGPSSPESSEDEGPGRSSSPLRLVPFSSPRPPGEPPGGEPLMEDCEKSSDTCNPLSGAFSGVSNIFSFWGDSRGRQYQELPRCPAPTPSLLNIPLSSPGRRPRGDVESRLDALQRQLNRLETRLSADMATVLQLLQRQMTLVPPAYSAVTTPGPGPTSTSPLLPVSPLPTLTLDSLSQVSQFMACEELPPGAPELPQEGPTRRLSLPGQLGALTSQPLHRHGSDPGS
In the case of `CCc1cc2c(=O)c(-c3cnn(-c4ccccc4)c3)c(C)oc2cc1OCC(=O)Nc1cccc(C)c1`, the “hERG current change (%, negative = inhibition) at 1uM” value is 9.22%. As for `S=C1NC[C@H](CC2CCCCC2)N1CC1CCCCC1`, the figure is 14.3%. Regarding `c1ccc(Cn2nnnc2CN2CCN(c3ncccn3)CC2)cc1`, the “hERG current change (%, negative = inhibition) at 1uM” value worked out at 9.33%. Turning to `O=C(NCCCn1ccnc1)/C(=C\c1ccc(Br)cc1)NC(=O)c1ccccc1`, the “hERG current change (%, negative = inhibition) at 1uM” value is -82.1%. As for `O=C(CSCc1cccc(Br)c1)NC1CC1`, the figure is 5.7%; as for `CCN(CC)CCNC(=O)C1c2ccccc2Oc2ccccc21.Cl`, 11.2%. As for `CCc1cccc(NC(=S)N(CCCOC(C)C)C2CCN(C(C)=O)CC2)c1`, the “hERG current change (%, negative = inhibition) at 1uM” value is listed as 10%.

Take `COc1cccc(NC(=S)N2CCc3cc(OC)c(OC)cc3C2)c1`: the “hERG current change (%, negative = inhibition) at 1uM” value stood at 10.4%. As for `CCN(CC)c1ccc(C(=O)OCC(=O)N(C)Cc2ccccc2)cc1`, the figure is 0.0425%. Take `COc1ccccc1C(=O)O[C@H]1[C@H](Cc2ccccc2)NS(=O)(=O)[C@H]2C[C@@H]3C=C[C@]12O3`: the “hERG current change (%, negative = inhibition) at 1uM” value was 15.1%. For the compound `CCOC(=O)c1sc(NC(=O)C(CC)OC(=O)c2ccco2)nc1C` (centres unmarked), the “hERG current change (%, negative = inhibition) at 1uM” value came to 4.4%. As for `CCn1c(=O)c([N+](=O)[O-])c(NCC(O)c2ccccc2)c2ccccc21` (centres unmarked), the figure is 13.1%; as for `O=C1CC(c2ccccc2)CC(=NCCO)/C1=C(\O)CCCN1C(=O)c2ccccc2C1=O` (centres unmarked), -10.8%; as for `Cc1ccccc1NC(=O)C(C)OC(=O)CCC(=O)N(CC(C)C)c1c(N)n(CC(C)C)c(=O)[nH]c1=O` (centres unmarked), -0.648%. On to `CNS(=O)(=O)c1ccc(NS(=O)(=O)c2ccccc2F)cc1`, for which the “hERG current change (%, negative = inhibition) at 1uM” value was found to be 12.7%. As for `Brc1ccc(C2=Nn3c(nnc3-c3n[nH]c4c3CCC4)SC2)cc1`, the figure is 9.48%; as for `COc1ccccc1N1CC(C(=O)OCc2nc(N)nc(Nc3ccccc3)n2)CC1=O` (centres unmarked), 7.72%. As for `Nc1cc(Cl)nc(N/N=C/c2ccccc2[N+](=O)[O-])n1`, the figure is 12.1%; as for `Cc1ccc(C(=O)NCC(=O)OCC(=O)c2c(N)n(C)c(=O)n(C)c2=O)s1`, 8.15%. As for `COc1ccc(NC(=O)Cc2nc3ccccc3[nH]2)cc1`, the figure is -10.1%; as for `Cl.O=C(NCCN1CCCC1)C(c1ccccc1)c1ccccc1`, 1.04%; as for `N#CC(C#N)=Cc1cc2ccccc2nc1N1CCOCC1`, 15.6%. As to `Cl.O=C(CN1CCN(c2cccc(C(F)(F)F)c2)CC1)Nc1cccc(C(F)(F)F)c1`, the “hERG current change (%, negative = inhibition) at 1uM” value is 9.79%. As for `O=C1C2C(C(=O)N1c1ccncc1)C1C=CC2C12CC2` (centres unmarked), the figure is 4.31%; as for `CCOC(=O)C1=C(N)OC2=C(C(=O)CC(C)(C)C2)C1c1ccco1` (centres unmarked), -7.98%. As for `CCCCSc1nnc(CNC(=O)C23CC4CC(CC(C4)C2)C3)n1Cc1ccccc1`, the figure is 1.35%; as for `O=C(CC1C(=O)NCCN1Cc1cccc(F)c1)NCCCN1CCCC1=O` (centres unmarked), 1.69%; as for `COc1ccc(OC)c(NC2c3ccccc3C(=O)N2Cc2ccc3c(c2)OCO3)c1` (centres unmarked), 2.8%. As for `Cc1cc(C)c(CSc2ncc(-c3ccc([N+](=O)[O-])cc3)[nH]2)c(C)c1`, the “hERG current change (%, negative = inhibition) at 1uM” value came to 2.47%.

For the compound `Cc1ccc(C(O)c2nccn2C)o1` (centres unmarked), the “hERG current change (%, negative = inhibition) at 1uM” value turned out to be 12.2%.

As for `O=S(=O)(/N=C(\c1ccccc1F)N1CCCCC1)c1ccccc1`, the “hERG current change (%, negative = inhibition) at 1uM” value worked out at 2.46%.

Consider `Cc1cc(NC(=O)CSc2ccc(F)cc2)no1`, for which the “hERG current change (%, negative = inhibition) at 1uM” value is reported as 10.9%.

For the compound `Cc1ccc(S(=O)(=O)N2CCCC2C(=O)NC2=NCCS2)cc1` (centres unmarked), the “hERG current change (%, negative = inhibition) at 1uM” value amounted to 11.6%. As for `CCO[C@@H]1OC(C(=O)O)=C[C@H](c2ccc(Br)cc2)[C@H]1CCCO`, the figure is 16.9%; as for `COc1ccc(N2CCN(C(=O)c3cccs3)CC2)cc1`, 10.3%. As for `COc1ccccc1N1CCN(C(=O)c2cn(C)c3ccc(S(=O)(=O)N4CCOCC4)cc3c2=O)CC1`, the figure is 13.1%. As for `CC(=O)Nc1cccc(NC(=O)Cc2nc(-c3ccccc3)sc2-c2ccc(C)cc2)c1`, the figure is 12.4%; as for `N#Cc1nc(-c2ccccc2F)oc1NCCc1ccccc1`, 12.2%. Turning to `Cc1cc(=O)c2n(Cc3ccc(Cl)cc3)nc[n+]2[nH]1.[Cl-]`, the “hERG current change (%, negative = inhibition) at 1uM” value turned out to be 3.97%. As for `COC(=O)n1c(=O)oc2ccc(S(=O)(=O)N3CCCCC3)cc21`, the figure is 10.6%.

Consider `CCC(=O)Nc1cccc(NC(=O)CSc2nnc(-c3ccc(NS(C)(=O)=O)cc3)n2CC)c1`, for which the “hERG current change (%, negative = inhibition) at 1uM” value is given as 12.7%. For the compound `CN1CCN(CC(=O)NC(=O)NC2CCCCC2)CC1`, the “hERG current change (%, negative = inhibition) at 1uM” value is reported as 9.81%. With `Cc1ccc(NC(=O)CNCc2ccccc2)c(Br)c1`, the “hERG current change (%, negative = inhibition) at 1uM” value is recorded as -0.411%. Regarding `CC1(C)CC(NS(=O)(=O)c2ccc(C(C)(C)C)cc2)CC(C)(C)N1`, the “hERG current change (%, negative = inhibition) at 1uM” value was 6.9%. As for `CCCNC(=O)c1cc(S(=O)(=O)N2CCc3ccccc32)ccc1F`, the figure is 0.165%; as for `COc1cccc(NC(=O)CCS(=O)(=O)c2cc3c(cc2Cl)NC(=O)CO3)c1`, 9.3%. As for `O=S(=O)(NCCNS(=O)(=O)c1ccc(F)cc1)c1ccc(F)cc1`, the figure is -9.15%. As for `Cn1c(SCC(=O)NNC(=O)c2ccc(Br)cc2)nnc1-c1cccnc1`, the figure is 1.36%. As to `COc1ccc2c(CN3CC=C(c4ccccc4)CC3)cc(=O)oc2c1`, the “hERG current change (%, negative = inhibition) at 1uM” value was 13.1%.

Regarding `COc1ccc(OC)c(S(=O)(=O)N/N=C(/C)c2c[nH]c3ccccc23)c1`, the “hERG current change (%, negative = inhibition) at 1uM” value is 19.7%.

In the case of `CCOC(=O)c1cc2ccc(OC)c(OC)c2c(=O)s1`, the “hERG current change (%, negative = inhibition) at 1uM” value came out at 10.1%.

On to `Cc1cccc2sc(NC(=O)CNS(=O)(=O)c3ccc(Br)s3)nc12`, for which the “hERG current change (%, negative = inhibition) at 1uM” value is 10.1%. As for `Cc1cc(Br)c(S(=O)(=O)n2nnc3ccccc32)cc1C`, the figure is 8.45%. As for `COc1ccccc1/C=C/c1nc(C#N)c(N(C)C)o1`, the figure is 12.8%; as for `CN(/N=C/c1cc(Cl)cc(Cl)c1O)c1c(Cl)cccc1[N+](=O)[O-]`, 8.51%. As for `Cc1noc(COc2ccccc2OCC(O)CNC(C)(C)C)n1.Cl` (centres unmarked), the figure is 14.7%.

For `Cc1ccc(NS(=O)(=O)c2cccc(C(=O)NCCCN3CCOCC3)c2)cc1`, the “hERG current change (%, negative = inhibition) at 1uM” value is on record as -5.41%.

For `COc1ccc(S(=O)(=O)N2CCCCC2)cc1`, the “hERG current change (%, negative = inhibition) at 1uM” value is 3.95%. Take `Cc1ccc(C(=O)OCC(=O)NCCc2ccccc2)cc1C`: the “hERG current change (%, negative = inhibition) at 1uM” value was determined as 9.53%. As for `CC12CCCCC1N(O)CN2O` (centres unmarked), the figure is 4.92%; as for `N/C(=N\S(=O)(=O)c1cccs1)c1ccccc1`, 12.9%; as for `COc1ccc(-c2[nH]ncc2-c2cnc(C)s2)c(O)c1`, 17%. As for `CC(=O)Nc1ccc2oc(-c3cc(F)c(F)cc3Cl)nc2c1`, the figure is 5.97%. As for `Cc1cc(C(=O)NCC(C)(C)N2CCOCC2)c(C)o1`, the figure is 18%. For the compound `Cc1ccc(C(=O)NCC(=O)OCc2csc(-c3ccccc3)n2)cc1`, the “hERG current change (%, negative = inhibition) at 1uM” value is 8.35%. With `CC1C/C(=C\c2ccccc2[N+](=O)[O-])c2nc3ccccc3c(C(=O)O)c2C1` (centres unmarked), the “hERG current change (%, negative = inhibition) at 1uM” value was 17.9%. As for `Cc1cc(-n2c(=O)c(C#N)cc3c(=O)n4cccc(C)c4nc32)no1`, the figure is -46.8%; as for `CC1CC(C)CN(C(=O)CN2C(=O)NC(C)(C)C2=O)C1` (centres unmarked), 9.98%.

For `O=C(CSc1nc2ccccc2[nH]1)Nc1c(F)c(F)c(F)c(F)c1F`, the “hERG current change (%, negative = inhibition) at 1uM” value is 16.7%.

For `Cc1[nH][nH]c(=O)c1C`, the “hERG current change (%, negative = inhibition) at 1uM” value came out at 5.12%. As for `COC(=O)N(NC(=O)C(O)(c1ccccc1)c1ccccc1)c1ccc(C)cc1`, the figure is 7.79%; as for `COc1ccc2[nH]c(C)cc(=O)c2c1`, 16.9%; as for `CCn1c(C)nc2cc(C(=O)OC)ccc21`, 14.9%. In the case of `Clc1ccc(Cl)c(OCCCCN2CCNCC2)c1.O=C(O)C(=O)O`, the “hERG current change (%, negative = inhibition) at 1uM” value is 7.87%. As for `CCN(CC)CCN1C(=O)C(=O)/C(=C(/O)c2ccc(OC)cc2)C1c1ccco1` (centres unmarked), the figure is 10.6%. As for `Cc1ccc(-n2c(-c3ccncc3)n[nH]c2=S)cc1C`, the figure is 5.81%. As for `CC(C)CN(C(=O)CCC(=O)OCC(=O)N(C)c1ccccc1)c1c(N)n(CC(C)C)c(=O)[nH]c1=O`, the figure is 11.2%. As to `CC(=O)Nc1cc[n+](C(C)C(=O)c2ccc(Br)cc2)cc1.[Cl-]` (centres unmarked), the “hERG current change (%, negative = inhibition) at 1uM” value was determined as 7.17%. As to `NC(=O)C1CCN(c2nc3c(S(=O)(=O)c4ccccc4)nnn3c3ccccc23)CC1`, the “hERG current change (%, negative = inhibition) at 1uM” value was 12.8%. As for `CC(C)c1ccc(C2C(C#N)=C(N)Oc3c2oc(CO)cc3=O)cc1` (centres unmarked), the figure is 4.15%; as for `CCCc1nc2ccccc2c(C(=O)OC(C)C(=O)NCc2ccc3c(c2)OCO3)c1CC` (centres unmarked), 6.36%. As for `COc1ccc(C)cc1NC(=O)N1CCC2(CC1)OCCO2`, the figure is 9.97%; as for `O=[N+]([O-])c1cc(Cl)ccc1N1CCN(c2cccc(C(F)(F)F)c2)CC1`, 14.5%; as for `Fc1ccc(-n2c(Cn3nnc4ccccc43)n[nH]c2=S)cc1`, 33.3%. As for `Cn1c(=O)oc2cc(S(=O)(=O)NCCC(=O)N3CC=C(c4ccccc4)CC3)ccc21`, the figure is 0.471%; as for `COc1cc(CNc2cccc(F)c2)cc(Br)c1O`, 1.47%. As to `COc1ccc(C2(C)NC(=O)N(CC(=O)Nc3ccc(Br)cc3F)C2=O)cc1OC` (centres unmarked), the “hERG current change (%, negative = inhibition) at 1uM” value was 13.3%. As for `CCCCn1c(N)c(N(CCC(C)C)C(=O)c2cccc(-n3cnnn3)c2)c(=O)[nH]c1=O`, the figure is 7.47%. As for `CCOc1ccc(C(=O)OCc2nnc(-c3cccs3)o2)cc1OC`, the figure is -10.3%.
